From a compilation of properties of binary mixtures (doi:10.1021/je9702955)
Some of these densities may be calculated back from excess volumes.

Experiment: xn = mol fraction of the nth substance listed
Conditions: 298.15 K, 100 kPa

CCCCOCCOCCOCCCC + CCCO
Conditions | mass density [kg/m3]
x1 = 0.0034 | 800.4
x1 = 0.0097 | 802.1
x1 = 0.0158 | 803.8
x1 = 0.0252 | 806.2
x1 = 0.0426 | 810.5
x1 = 0.0979 | 821.9
x1 = 0.1509 | 830.6
x1 = 0.1955 | 836.7
x1 = 0.2419 | 842.1
x1 = 0.2937 | 847.3
x1 = 0.3481 | 851.9
x1 = 0.3959 | 855.4
x1 = 0.4376 | 858.2
x1 = 0.4827 | 860.8
x1 = 0.54 | 863.8
x1 = 0.5983 | 866.4
x1 = 0.6954 | 870.1
x1 = 0.7531 | 872
x1 = 0.8095 | 873.6
x1 = 0.9083 | 876.1
x1 = 0.9447 | 876.9
x1 = 0.9742 | 877.6

CCOCCOCCOCC + CCCO
Conditions | mass density [kg/m3]
x1 = 0.0129 | 802.8
x1 = 0.0249 | 805.8
x1 = 0.0395 | 808.5
x1 = 0.0516 | 812.2
x1 = 0.0695 | 816.3
x1 = 0.097 | 822.1
x1 = 0.1283 | 828.2
x1 = 0.1736 | 836.2
x1 = 0.2229 | 843.9
x1 = 0.2672 | 850.2
x1 = 0.3115 | 855.8
x1 = 0.4026 | 865.9
x1 = 0.4592 | 871.3
x1 = 0.5239 | 876.8
x1 = 0.5856 | 881.5
x1 = 0.6363 | 885
x1 = 0.6742 | 887.5
x1 = 0.7119 | 889.8
x1 = 0.7662 | 892.8
x1 = 0.8311 | 896.2
x1 = 0.8815 | 898.6
x1 = 0.9142 | 900
x1 = 0.9468 | 901.4
x1 = 0.9756 | 902.5

COCCO + CCCO
Conditions | mass density [kg/m3]
x1 = 0.0072 | 800.6
x1 = 0.0297 | 804.4
x1 = 0.0471 | 807.3
x1 = 0.062 | 809.7
x1 = 0.0767 | 812.2
x1 = 0.0973 | 815.6
x1 = 0.2144 | 834.9
x1 = 0.2667 | 843.5
x1 = 0.3227 | 852.6
x1 = 0.3699 | 860.3
x1 = 0.4118 | 867.1
x1 = 0.4575 | 874.5
x1 = 0.4938 | 880.3
x1 = 0.5359 | 887.1
x1 = 0.5856 | 895
x1 = 0.6298 | 902.1
x1 = 0.6793 | 909.9
x1 = 0.7347 | 918.7
x1 = 0.7779 | 925.5
x1 = 0.8231 | 932.6
x1 = 0.9597 | 953.9

COCCOCCOC + CCCO
Conditions | mass density [kg/m3]
x1 = 0.0064 | 801.1
x1 = 0.0122 | 802.7
x1 = 0.0238 | 805.7
x1 = 0.0358 | 808.8
x1 = 0.0803 | 819.6
x1 = 0.1176 | 828
x1 = 0.1632 | 837.7
x1 = 0.2064 | 846.1
x1 = 0.2619 | 856.2
x1 = 0.3716 | 873.9
x1 = 0.4168 | 880.4
x1 = 0.4652 | 886.9
x1 = 0.5109 | 892.7
x1 = 0.5509 | 897.5
x1 = 0.5982 | 902.9
x1 = 0.711 | 914.3
x1 = 0.7757 | 920.7
x1 = 0.819 | 925
x1 = 0.9094 | 932
x1 = 0.9425 | 934.6
x1 = 0.9722 | 936.9

COCCOCCOCCOC + CCCO
Conditions | mass density [kg/m3]
x1 = 0.0081 | 803
x1 = 0.0245 | 810
x1 = 0.0336 | 813.8
x1 = 0.048 | 819.6
x1 = 0.0692 | 827.7
x1 = 0.0946 | 836.8
x1 = 0.1327 | 849.3
x1 = 0.1747 | 861.9
x1 = 0.2259 | 875.6
x1 = 0.2757 | 887.5
x1 = 0.3691 | 906.8
x1 = 0.4606 | 922.7
x1 = 0.5714 | 938.7
x1 = 0.6283 | 945.9
x1 = 0.7227 | 956.5
x1 = 0.7726 | 961.7
x1 = 0.8625 | 969.9
x1 = 0.9112 | 974
x1 = 0.9347 | 975.8
x1 = 0.9568 | 977.5
x1 = 0.9775 | 979.1

OCCO + CCCO
Conditions | mass density [kg/m3]
x1 = 0.0111 | 802.1
x1 = 0.0482 | 811.1
x1 = 0.0722 | 817.1
x1 = 0.0979 | 823.5
x1 = 0.1442 | 835.3
x1 = 0.1912 | 847.5
x1 = 0.2938 | 875.3
x1 = 0.345 | 889.6
x1 = 0.3886 | 902.2
x1 = 0.4681 | 925.8
x1 = 0.5096 | 938.6
x1 = 0.5452 | 949.7
x1 = 0.5843 | 962.2
x1 = 0.6533 | 984.8
x1 = 0.6993 | 1000.4
x1 = 0.7522 | 1018.6
x1 = 0.7998 | 1035.5
x1 = 0.84 | 1050
x1 = 0.918 | 1078.7
